The whole screen tested about 410,000 compounds, of which about 530 (0.13%) were called active. The inconclusive results got no clear call from the source; some entries with a clear call stand among them for comparison. Calls come from the whole dose curve; as a rule, active = well fitted inhibition curve with a large enough effect; inconclusive = small, poorly fitted or top-dose-only effect, or another doubt; inactive = no such curve, though single readings can be large or run the other way. Where the call is inconclusive, the potency comes from a doubtful curve fit.
experiment: qHTS of GLP-1 Receptor Inverse Agonists: Cytotox Screen; settings: HEK293 cAMP-luciferase reporter cells, luminescence, 24 h; activity change, negative = inhibition: at 38.3 µM (top of the series) unless noted
How it was run: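 Luminescence readout: signal drop marks cytotoxicity. Plated cells grew 12 h at 37 °C, 5% CO2, received 23 nL compound for 24 h, then got luciferase reagent, read after 12 min at RT.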
% is set by controls: 0 for no effect and ±100 for the full control effect; potency is the fitted concentration of half-maximal effect.

| Compound | activity change, negative = inhibition | Potency |
| --- | --- | --- |
| Cc1ccc(Cl)cc1NC(=O)CSc1ccc(C(=O)O)cn1 | inactive: -10.4% | – |
| CCc1ccc(CN2CCC(Oc3ccc(C(=O)N4CCCCC4)cc3)CC2)cc1 | – | inconclusive: 28.2 µM [inhibitor, single point] |
| O=C(CN1C(=O)NC2(CCOc3ccccc32)C1=O)NCCc1ccccc1 (stereo not given) | inactive: 12.4% | – |
| CCn1c(-c2ccc(F)cc2)n[nH]c1=S | – | inconclusive: 14.1 µM [inhibitor, single point] |
| COc1ccc(C(=O)O/N=C(\N)Cc2ccc(Cl)cc2Cl)cc1OC | – | inconclusive: 6.31 µM [inhibitor, partial curve, poor fit] |
| CC1CCN(S(=O)(=O)c2ccc3c(c2)C(=NO)c2cc(S(=O)(=O)N4CCC(C)CC4)ccc2-3)CC1 | – | inconclusive: 3.55 µM [inhibitor, partial curve, poor fit] |
| Cc1cc(=O)oc2cc(OCC(=O)N3c4ccccc4CC3C)ccc12 (stereo not given) | – | inconclusive: 28.2 µM [inhibitor, single point] |
| Cc1[nH]n(-c2ncc(-c3ccccc3)s2)c(=O)c1C(c1ccc(Cl)cc1)C(C#N)C#N (stereo not given) | inactive: -23.6% | – |
| Cc1[nH]n(-c2ccccc2)c(=S)c1C=Nc1cccc([N+](=O)[O-])c1 | – | inconclusive: 10 µM [inhibitor, partial curve, poor fit] |
| COc1ccc(OC)c(S(=O)(=O)N/N=C\c2ccc3c(c2)OCO3)c1 | inactive: -14% | – |
| C=CCNC(=O)c1onc(CCl)c1C(=O)OC | – | inconclusive: 20 µM [inhibitor, single point] |
| CN1CCN(c2ccc([N+](=O)[O-])cc2C(=O)N2CCOCC2)CC1 | – | inconclusive: 31.6 µM [inhibitor, single point] |
| COCc1cc(C)nc(OCC(=O)N/N=C/c2ccc(OC)c(OC)c2)c1C#N | – | inconclusive: 28.2 µM [inhibitor, single point] |
| NCCCCCc1nnc(SCc2ccc(Cl)c(Cl)c2)o1 | inactive: -4.81% | – |
| CCN(CC)S(=O)(=O)c1ccc(N/N=C/c2cc(OC)ccc2O)nc1 | – | inconclusive: 3.16 µM [inhibitor, full curve] |
| CC(=O)Nc1ccc(NC(=O)C2CCN(c3c(Cc4ccccc4)c(C)nc4ncnn34)CC2)cc1 | – | inconclusive: 10 µM [inhibitor, partial curve, poor fit] |
| Cn1c(N=NC(=O)c2ccccc2)c(O)c2ccccc21 | – | inconclusive: 28.2 µM [inhibitor, single point] |
| Cc1cc(C)nc(-n2nc(C)cc2NC(=O)c2ccc(F)cc2F)n1 | – | inconclusive: 3.98 µM [inhibitor, full curve, poor fit] |
| COc1ccc(Cn2c(=N)c(C(=O)NC3CCCCC3)cc3c(=O)n4ccccc4nc32)cc1 | inactive: -14.4% | – |
| CC(C)NC(=O)C1CCC(Cn2c(=O)c3sccc3n(CC(=O)NCc3ccccc3)c2=O)CC1 (stereo not given) | inactive: 0.144% | – |
| CCOC(=O)C/C(N)=N/NC(=O)c1ccc(Cl)cc1Cl | – | inconclusive: 28.2 µM [inhibitor, single point] |
| CC(C)(C)c1ccccc1NC(=S)NC1CCCC1 | – | inconclusive: 12.6 µM [inhibitor, single point] |

| Compound | activity change, negative = inhibition | Potency |
| --- | --- | --- |
| CC(C)CCC(CCNCc1ccccn1)c1ccc(Cl)cc1 (stereo not given) | – | inconclusive: 11.2 µM [inhibitor, partial curve, poor fit] |
| COc1cccc(CC2(CO)CCCN(Cc3cc(F)ccc3-n3cccn3)C2)c1 (stereo not given) | – | inconclusive: 28.2 µM [inhibitor, single point] |
| CN(C)CCCN(C(=O)c1ccc2c(c1)OCCO2)c1nc2ccccc2s1 | – | inconclusive: 28.2 µM [inhibitor, single point] |
| CN(C)C(CNC(=O)c1cccc(S(=O)(=O)N2CCN(c3ccc(F)cc3)CC2)c1)c1ccccc1 (stereo not given) | – | inconclusive: 31.6 µM [inhibitor, single point] |
| COc1ccc(Cl)cc1NC(=O)Cn1c(=O)n(CCC(=O)NCc2ccc3c(c2)OCO3)c(=O)c2ccccc21 | inactive: 4.34% | – |
| CCn1c(CNc2ccccc2Cl)nnc1SCC(=O)OC1CCCCC1 | – | inconclusive: 28.2 µM [inhibitor, single point] |
| COc1ccc(NC(=O)CSc2ncnc3c2nnn3-c2ccc(F)cc2)c(OC)c1 | – | inconclusive: 0.501 µM [inhibitor, full curve, poor fit] |
| NC(=O)c1cc(-c2ccccc2)sc1NC(=O)CN1CCCCC1 | – | inconclusive: 12.6 µM [inhibitor, single point] |
| Cc1noc(C)c1COc1ccc(C(=O)Nc2ccccc2)cc1 | – | inconclusive: 25.1 µM [inhibitor, single point] |
| CCCCC(=O)NC(c1ccc(C(C)C)cc1)c1ccc2cccnc2c1O (stereo not given) | inactive: -13.6% | – |
| O=C(CCl)NCCN1C(=O)S/C(=C\c2cccnc2)C1=O | – | inconclusive: 20 µM [inhibitor, single point] |
| Cn1cc(C(=O)N2CCN(c3cccc(C(F)(F)F)c3)CC2)c2c3ccccc3n(C)c2c1=O | – | inconclusive: 20 µM [inhibitor, single point] |
| CCc1[nH]c(=O)c(C#N)c2c1COC(C)(C)C2 | inactive: 5.83% | – |
| COc1cc(NC(=O)c2ccc(-c3cccc(F)c3)o2)ccc1NC(=O)c1ccccc1Cl | – | inconclusive: 1.58 µM [inhibitor, partial curve, poor fit] |
| CC1(C)CC(C)(O)N(Cc2ccccc2)C(=S)N1 (stereo not given) | – | inconclusive: 12.6 µM [inhibitor, partial curve, poor fit] |
| CCCCn1c(=N)n(CC(O)COc2ccc(C)cc2)c2ccccc21 (stereo not given) | – | inconclusive: 14.1 µM [inhibitor, partial curve] |
| NCCNc1ccc([N+](=O)[O-])c(NC2CC2)c1 | – | inconclusive: 10 µM [inhibitor, partial curve, poor fit] |
| Clc1ccc(-c2nc(NCCCN3CCOCC3)c3ccccc3n2)cc1 | – | inconclusive: 28.2 µM [inhibitor, single point] |
| O=C(N/N=C/c1ccc(O)c(O)c1)N/N=C/c1ccc(O)c(O)c1 | – | inconclusive: 7.08 µM [inhibitor, partial curve, poor fit] |
| C=CCC[C@H](Cc1ccc(F)cc1)C(=O)OC[C@@H](NC(=O)[C@@H](CC=C)CC(=O)N[C@@H](CO)Cc1ccccc1)C(C)(C)C | – | inconclusive: 10 µM [inhibitor, partial curve, poor fit] |
| C[C@@H](O)C1NC(=O)[C@H](CCCCN)NC(=O)c2cc([N+](=O)[O-])cc(F)c2NCCCC[C@@H](C(N)=O)NC1=O (stereo not given in full) | – | inconclusive: 10 µM [inhibitor, single point] |
| Cc1ccc(C(=O)OCC(=O)Nc2sccc2C(N)=O)cc1NC(=O)c1ccco1 | – | inconclusive: 22.4 µM [inhibitor, single point] |

| Compound | activity change, negative = inhibition | Potency |
| --- | --- | --- |
| O=C(Oc1ccccc1)c1ccc(-n2cnnn2)cc1 | – | inconclusive: 28.2 µM [inhibitor, single point] |
| NC(=S)NN=Cc1nccc2c(C(F)(F)F)cccc12 | – | inconclusive: 0.708 µM [inhibitor, full curve, poor fit] |
| O=C(/C(=N/N=C/c1ccc(O)c(O)c1O)c1ccccc1)c1ccccc1 | – | inconclusive: 10 µM [inhibitor, single point] |
| Cc1ccsc1C(=O)OCC(=O)N1CCc2ccccc2C1 | inactive: -3.54% | – |
| COc1ccc([N+](=O)[O-])cc1NC(=O)CSc1nccc(C)n1 | – | inconclusive: 10 µM [inhibitor, single point] |
| CCN1CCN(c2ccc(NC(=O)c3cc(OC)c(OC)c(OC)c3)cc2)CC1 | inactive: -1.96% | – |
| c1ccc(COc2ccc(OCCCCN3CCCC3)cc2)cc1 | inactive: -18.2% | – |
| COc1ccccc1/C=C\C=N\n1c(-c2ccc(Cl)cc2)n[nH]c1=S | – | inconclusive: 22.4 µM [inhibitor, single point] |
| COc1ccc(C(=O)N(C)CC2CCN(CCc3cccc(C(F)(F)F)c3)CC2)cc1C | – | inconclusive: 31.6 µM [inhibitor, single point] |
| CCOc1cc(C2Sc3ccccc3NC3=C2C(=O)c2ccccc23)ccc1O (stereo not given) | – | inconclusive: 20 µM [inhibitor, single point] |
| CCn1c(SCC(=O)Nc2ccc(C(C)=O)cc2)nc2c([nH]c3ccccc32)c1=O | – | inconclusive: 10 µM [inhibitor, partial curve, poor fit] |
| Nc1ccc(CC(N)c2csc(Nc3cc(Oc4ccccc4)ncn3)n2)cc1 (stereo not given) | – | inconclusive: 28.2 µM [inhibitor, single point] |
| O=C(CCl)N(C/C=C/c1ccccc1)c1ccc2c(c1)OCCO2 | – | inconclusive: 11.2 µM [inhibitor, partial curve] |
| CCOC(=S)SCC(=O)Nc1nc(-c2ccccc2)cs1 | – | inconclusive: 2.51 µM [inhibitor, full curve, poor fit] |
| Cc1cc(Cl)ccc1N(CC(=O)N(C)Cc1ccccc1)S(C)(=O)=O | inactive: -1.83% | – |
| CC(CN1CCN(CCOCCO)CC1)CN1c2ccccc2Sc2ccc(Cl)cc21 (stereo not given) | – | inconclusive: 11.2 µM [inhibitor, single point] |
| Cn1c(=N)n(CC(=O)c2cccs2)c2ccccc21 | – | inconclusive: 28.2 µM [inhibitor, single point] |
| COCCCNC(=O)N1c2ccccc2Sc2ccccc21 | inactive: 0.263% | – |
| COc1cc(/C=N/Nc2ccccn2)ccc1OCC(C)C | – | inconclusive: 10 µM [inhibitor, partial curve, poor fit] |
| N#CC1=C2SCC(O)(c3ccccc3)N2C(=O)CC1c1cccs1 (stereo not given) | – | inconclusive: 0.501 µM [inhibitor, full curve, poor fit] |
| CN1C(=O)C(C(=O)NC(C)(C)C)C2c3ccccc3OC13CCCCC23 (stereo not given) | – | inconclusive: 10 µM [inhibitor, partial curve, poor fit] |

— PubChem BioAssay AID624418 (National Center for Advancing Translational Sciences (NCATS), 2012)
